Laboratory results reported in article PMC4921775, “Transient Fcho1/2⋅Eps15/R⋅AP-2 Nanoclusters Prime the AP-2 Clathrin Adaptor for Cargo Binding” (Developmental Cell, 2016).
Positions count from the first letter of the chain named. Results are given in words; binding and its absence hold for the method and conditions named. In cells and extracts the contact can be indirect. Some results given as binding are weak or reduced against the parent protein; the word gives no strength. For some assays here: Tags and fused reporters may be left off the sequences shown. One block for each binder: values may come before it.

Tests used:
[1] = biological target: T1, GST-EPS15 (615–636) (human); test: pull-down; rat brain cytosol with 250 μg of GST and either 50 or 250 μg of GST-EPS15 fusion proteins; immunoblot with antibodies against Fcho2; Figures 1A, 1B; only the target purified
T1 sequence: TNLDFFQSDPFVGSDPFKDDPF

[2] = biological target: T2, GST-FCHO1 μHD (human) (UniProt O14526); test: pull-down; GST-μHD fusion proteins on glutathione-Sepharose, cytosolic partner proteins detected by blot; Figures S1E, S3A, S3B, S3E (legends not shown, source of the extract not told); only the target purified
T2 sequence: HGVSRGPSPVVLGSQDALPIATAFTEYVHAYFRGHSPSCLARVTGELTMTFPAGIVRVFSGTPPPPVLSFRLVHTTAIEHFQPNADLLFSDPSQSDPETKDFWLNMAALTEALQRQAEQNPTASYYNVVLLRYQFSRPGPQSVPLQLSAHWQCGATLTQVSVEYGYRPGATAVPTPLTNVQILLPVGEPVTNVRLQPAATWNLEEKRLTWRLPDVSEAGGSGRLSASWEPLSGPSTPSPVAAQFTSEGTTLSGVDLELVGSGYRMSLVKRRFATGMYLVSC

[3] = biological target: T3, GST-FCHO1 μHD K877E + R879A (human, UniProt O14526 609-889, K877E | R879A); test: pull-down; HeLa cell lysate with 250 μg (Figure 3F: the indicated amount) of GST or GST-μHD fusion proteins immobilised on glutathione-Sepharose; supernatant and pellet stained or immunoblotted; Figures 1G, 3E, 3F; only the target purified
T3 construct: also called K877E + R879A mutant; source: GST-fusion protein immobilised on glutathione-Sepharose; not shown: GST, N-terminal, kept
T3 sequence (looked up): T2 sequence with K269E, R271A

[4] = biological target: T2, GST-FCHO1 μHD (human); test: as above
[5] = biological target: T4, GST-FCHO1 μHD T633Y (human) (UniProt O14526); test: pull-down; GST-μHD fusion proteins on glutathione-Sepharose, cytosolic partner proteins detected by blot; Figures S1E, S3A, S3B, S3E (legends not shown, source of the extract not told); only the target purified
T4 sequence: T2 sequence with T25Y

[6] = biological target: T5, GST-FCHO1 μHD Y635S (human) (UniProt O14526); test: as above
T5 sequence: T2 sequence with Y27S

[7] = biological target: T6, GST-FCHO1 μHD N735A + R740A (human) (UniProt O14526); test: pull-down; HeLa cell lysate with 250 μg (Figure 3F: the indicated amount) of GST or GST-μHD fusion proteins immobilised on glutathione-Sepharose; supernatant and pellet stained or immunoblotted; Figures 1G, 3E, 3F; only the target purified
T6 sequence: T2 sequence with N127A, R132A

[8] = biological target: T7, EPS15 (595–896) (human) (UniProt P42566); test: pull-down; EPS15 (595–896) immobilised on excess GST-AP-2 α appendage, FCHO1 μHD added; Figures S1G, S1H (legends not shown)
T7 sequence: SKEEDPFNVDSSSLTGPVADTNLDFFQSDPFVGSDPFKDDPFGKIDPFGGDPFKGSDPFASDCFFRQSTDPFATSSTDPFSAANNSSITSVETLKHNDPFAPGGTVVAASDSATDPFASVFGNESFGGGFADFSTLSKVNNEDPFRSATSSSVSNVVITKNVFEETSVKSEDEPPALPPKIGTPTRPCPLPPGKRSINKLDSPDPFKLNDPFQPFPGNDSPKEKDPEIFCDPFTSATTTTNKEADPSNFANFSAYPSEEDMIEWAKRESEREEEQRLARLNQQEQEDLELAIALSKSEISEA

- binding [1]: binds
B1: Fcho2 (rat brain cytosol) (protein, UniProt D3ZYR1 1-809)
chain: MVMAHFVENFWGEKNNGFDVLYHNMKHGQISTKELADFVRERATIEEAYSRSMTKLAKSASNYSQLGTFAPVWDVFKTSTEKLANCHLDLVRKLQELIKEVQKYGEEQVKSHKKTKEEVAGTLEAVQAIQNITQALQKSKENYNAKCVEQERLKKEGATPREIEKAAVKSKKATDTYKLYVEKYALTKADFEQKMTETAQKFQDIEETHLIHIKEIIGSLSNAIKEIHLQIGQVHEEFINNMANTTIESLIQKFAESKGTGKERPGLIEFEECDPASAVEGIKPRKRKTFALPGIIKKEKDAESVECPDADSLNIPDVDEEGFSIKPEANQNDTKENHFYSSSDSDSEDEEPKRYRIEIKPVHPNNVHHTMASLDELKVSIGNITLSPAVSRHSPVQMNRNSSNEELTKSKPSSLPTEKGTNDLLAWDPLFGSSLESSSAPLTSSSSARPTTPLSLGTIVPPPRPASRPKLTSGKLSGINEIPRPFSPPITSNTSPPPTAPLARAESSSSISSSASLSAANTPTVGVSRGPSPVSLGNQDTLPVAIALTESVNAYFKGADPTKCIVKITGDVTISFPSGIIKVFTSNPSPAVLCFRVKNISRLEQILPNSQLVFSDPSQCDSNTKDFWMNMQAVTVYLKKLSEQNPAASYYNVDVLKYQVSSNGIQSTPLNLATYWKCSASTTDLRVDYKYNPEAMVAPSVLSNIQVVVPVDGGVTNMQSLPPAIWNAEQMKAFWKLSGISEKSDSGGSGSLRAKFDLSEGPSKPATLAVQFLSEGNTLSGVDIELVGTGYRLSLVKKRFATGRYLADC

- binding [2]: binds
- binding [5]: binds
- binding [6]: binds
- binding [3]: no binding
- binding [4]: binds weakly
- binding [7]: no binding
B3: HRB (protein, UniProt P52594 1-562)
chain: MAASAKRKQEEKHLKMLRDMTGLPHNRKCFDCDQRGPTYVNMTVGSFVCTSCSGSLRGLNPPHRVKSISMTTFTQQEIEFLQKHGNEVCKQIWLGLFDDRSSAIPDFRDPQKVKEFLQEKYEKKRWYVPPEQAKVVASVHASISGSSASSTSSTPEVKPLKSLLGDSAPTLHLNKGTPSQSPVVGRSQGQQQEKKQFDLLSDLGSDIFAAPAPQSTATANFANFAHFNSHAAQNSANADFANFDAFGQSSGSSNFGGFPTASHSPFQPQTTGGSAASVNANFAHFDNFPKSSSADFGTFNTSQSHQTASAVSKVSTNKAGLQTADKYAALANLDNIFSAGQGGDQGSGFGTTGKAPVGSVVSVPSQSSASSDKYAALAELDSVFSSAATSSNAYTSTSNASSNVFGTVPVVASAQTQPASSSVPAPFGATPSTNPFVAAAGPSVASSTNPFQTNARGATAATFGTASMSMPTGFGTPAPYSLPTSFSGSFQQPAFPAQAAFPQQTAFSQQPNGAGFAAFGQTKPVVTPFGQVAAAGVSSNPFMTGAPTGQFPTGSSSTNPFL

The remaining lines, values behind:

B2: DAB2 (protein, UniProt P98082 1-770)
chain: MSNEVETSATNGQPDQQAAPKAPSKKEKKKGPEKTDEYLLARFKGDGVKYKAKLIGIDDVPDARGDKMSQDSMMKLKGMAAAGRSQGQHKQRIWVNISLSGIKIIDEKTGVIEHEHPVNKISFIARDVTDNRAFGYVCGGEGQHQFFAIKTGQQAEPLVVDLKDLFQVIYNVKKKEEEKKKIEEASKAVENGSEALMILDDQTNKLKSGVDQMDLFGDMSTPPDLNSPTESKDILLVDLNSEIDTNQNSLRENPFLTNGITSCSLPRPTPQASFLPENAFSANLNFFPTPNPDPFRDDPFTQPDQSTPSSFDSLKSPDQKKENSSSSSTPLSNGPLNGDVDYFGQQFDQISNRTGKQEAQAGPWPFSSSQTQPAVRTQNGVSEREQNGFSVKSSPNPFVGSPPKGLSIQNGVKQDLESSVQSSPHDSIAIIPPPQSTKPGRGRRTAKSSANDLLASDIFAPPVSEPSGQASPTGQPTALQPNPLDLFKTSAPAPVGPLVGLGGVTVTLPQAGPWNTASLVFNQSPSMAPGAMMGGQPSGFSQPVIFGTSPAVSGWNQPSPFAASTPPPVPVVWGPSASVAPNAWSTTSPLGNPFQSNIFPAPAVSTQPPSMHSSLLVTPPQPPPRAGPPKDISSDAFTALDPLGDKEIKDVKEMFKDFQLRQPPAVPARKGEQTSSGTLSAFASYFNSKVGIPQENADHDDFDANQLLNKINEPPKPAPRQVSLPVTKSTDNAFENPFFKDSFGSSQASVASSQPVSSEMYRDPFGNPFA
- binding [2]: binds
- binding [3]: no binding
- binding [4]: binds weakly

B4: FCHO1 μHD (purified, not on beads) (domain or fragment, UniProt O14526 609-889)
chain: T2 sequence
- binding [8]: binds

B5: CALM (protein, UniProt Q13492 1-652)
chain: MSGQSLTDRITAAQHSVTGSAVSKTVCKATTHEIMGPKKKHLDYLIQCTNEMNVNIPQLADSLFERTTNSSWVVVFKSLITTHHLMVYGNERFIQYLASRNTLFNLSNFLDKSGLQGYDMSTFIRRYSRYLNEKAVSYRQVAFDFTKVKRGADGVMRTMNTEKLLKTVPIIQNQMDALLDFNVNSNELTNGVINAAFMLLFKDAIRLFAAYNEGIINLLEKYFDMKKNQCKEGLDIYKKFLTRMTRISEFLKVAEQVGIDRGDIPDLSQAPSSLLDALEQHLASLEGKKIKDSTAASRATTLSNAVSSLASTGLSLTKVDEREKQAALEEEQARLKALKEQRLKELAKKPHTSLTTAASPVSTSAGGIMTAPAIDIFSTPSSSNSTSKLPNDLLDLQQPTFHPSVHPMSTASQVASTWGDPFSATVDAVDDAIPSLNPFLTKSSGDVHLSISSDVSTFTTRTPTHEMFVGFTPSPVAQPHPSAGLNVDFESVFGNKSTNVIVDSGGFDELGGLLKPTVASQNQNLPVAKLPPSKLVSDDLDSSLANLVGNLGIGNGTTKNDVNWSQPGEKKLTGGSNWQPKVAPTTAWNAATMAPPVMAYPATTPTGMIGYGIPPQMGSVPVMTQPTLIYSQPVMRPPNPFGPVSGAQIQFM
- binding [2]: binds
- binding [5]: binds
- binding [6]: binds
- binding [3]: no binding
- binding [4]: binds weakly
- binding [7]: no binding
